According to a collection of fitness landscapes (doi:10.1016/j.celrep.2020.107928):
Over roughly 81,000 sequences, “one-hybrid fitness for binding NBS DNA” has its median near -0.1; the highest 2% begin near 0.36. The list shows a part of the results.

B1: Caulobacter ParB omega fusion; a variant is named by its letters at X, in order, B8GW30 (parent)
chain: MESVVVGEPGMSEGRRGLGRGLSALLGEVDAAPAQAPGEQLGGSREAPIEILQRNPDQPRRTFREEDLEDLSNSIREKGVLQPILVRPSPDTAGEYQIVAGERAWRAAQRAGLKTVPIMVRELDDLAVLEIGIIENVQRADLNVLEEALSYKVLMEKFERTQENIAQTIGKSXSHVANXMRLLXLPDEVQSYLVSGELTAXHARAIAAAADPVALAKQIIEGGLSVRETEALARKAPNLSAGKSKGGRPPRVKDTDTQALESDLSSVLGLDVSIDHRGSTGTLTITYATLEQLDDLCNRLTRGI

Variants of: B1
Experiment: one-hybrid fitness for binding NBS DNA (the Noc-binding site; scaled: cognate 1, non-cognate 0); higher = stronger binding
Details: with NBS DNA site
Outline: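 In E. coli USO, a HIS3 reporter with its site placed 19 bp from the promoter was used to select Caulobacter ParB variants randomised at four specificity codons. Growth lasted 48 hours at 37°C on histidine-free M9 containing 0.1 mM IPTG and 5 mM 3-AT. Fitness was taken as the log change in variant-to-wild-type read ratio from Illumina sequencing of pre- and post-selection plasmids, rescaled between the non-cognate and cognate sites.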

one-hybrid fitness for binding NBS DNA, 0.414:
QAHT

one-hybrid fitness for binding NBS DNA, ≤ 0.2:
LADD
RVIL
RFSK
DMAG
GCPG
AKHI
SQPM
TYAW
DTCS
LMCC
FMGR
HGWT
APCA
ERQL
LYHP
IMCV
AEAD
GCIT
AGPN
FLYT
ITCR
KGHG
YFDI
FARS
DFDS
CPGR
DTNG
KLIL
VAVG
QKNG
NNGV
EEVR
ASRQ
VWHS
FKSL
RQDA
VMVR
SLCT
RYSL
PNHS
ERKY
RTKF
SMAN
GVVS
MSRT
RMYV
HTNG
IKAC
AKQC
YGFT
THHV
SNTM
STGP
MKPF
YCCS
VKRV
EQAF
ENKC
LQLI
DLTW
LNTS
MSNS
MRID
CCQY
DGHF
TLLY
DETM
LDDM
SFAP
YQGC
PEPD
NLWC
AHLD
VAMH
IEAA
PCGS
QNHG
LTAP
AMYS
GYDR
SHPH
HPEC
LNSC
